Drawing on paper PMC10726135, this text covers binding signal (log2 normalized intensity) for 72 sequences.

Some of the results follow. At the low end of the ranking, values are background and their order means little. Measured with an extract: partners may take part in the binding.

In the experiment the target is T1, HNF4alpha2 (COS-7 nuclear extract) (UniProt P41235).
T1 sequence: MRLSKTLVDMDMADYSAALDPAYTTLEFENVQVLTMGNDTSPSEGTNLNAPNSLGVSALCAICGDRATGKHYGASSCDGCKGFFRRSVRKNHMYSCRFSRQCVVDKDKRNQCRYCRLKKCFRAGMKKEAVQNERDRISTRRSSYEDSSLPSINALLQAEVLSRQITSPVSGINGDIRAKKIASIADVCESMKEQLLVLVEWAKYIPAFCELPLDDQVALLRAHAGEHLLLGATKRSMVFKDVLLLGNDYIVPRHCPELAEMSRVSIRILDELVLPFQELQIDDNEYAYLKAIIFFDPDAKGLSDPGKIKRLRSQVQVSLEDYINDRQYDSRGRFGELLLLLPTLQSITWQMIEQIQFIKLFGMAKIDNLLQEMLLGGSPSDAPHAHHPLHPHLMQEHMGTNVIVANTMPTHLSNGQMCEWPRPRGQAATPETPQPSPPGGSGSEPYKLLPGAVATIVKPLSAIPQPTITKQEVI
As to the kind of experiment: protein-binding microarray. Particulars: COS-7 nuclear extract on double-stranded Agilent 4x180k PBM; binding buffer, salt, pH and temperature not given; high values mean tight binding; double strand, one strand shown; sequences stand for … in …GCCTAGGGAGATTAGAGTATCGGTCGA
Take AGCAACTATAAAACAGGAAAAAGGGACAAA: the binding signal (log2 normalized intensity) was -1.09.
Regarding CTGCCAAAGTTCAGCCTTGGGGCCATTCCA, the binding signal (log2 normalized intensity) amounted to 0.325.
Consider TAGCTGTTGGAATTTGGTCACAGAAAGTGA, for which the binding signal (log2 normalized intensity) is 1.95.
On to CCAGCAGGGGCTGCTGGGAGTTGTAGTTTT, for which the binding signal (log2 normalized intensity) was -1.05.
The same measure for CCACAGGAGGCCCCATCGCACGGCAGAACT: -1.07.
The same measure for GCCATGTTCTCTAGAAACAGAGCCCAAGGC: -1.1.
Regarding CTCCTGGCTTCTGGACTATGCCTTGAACTT, the binding signal (log2 normalized intensity) stood at 2.66.
In the case of AACCTGGGAAAACTTACGCACATTACTTTG it was -1.2.
In the case of GTCCAGAGGCTCCAAAGGACACTCCGCTTG it was -1.2; in that of AACTTACCCACCTGCTGCACAACGACCCTT, 2.93.
In the case of AAAATATCACAATCCTTAAGCAGCAGATAA it was -1.28.
With ACCTTCGAGCTTCACCTTTGTCCTCTCTCC, the binding signal (log2 normalized intensity) is 3.97.
In the case of GAGATCCTGGGTTCGAATCCCAGCGGTGCC it was -1.09; in that of GCACCCGTGGTTGATCAAAGGTTGGACTGA, 3.55.
The same measure for TGAAAAGTGAACTGTCTGCTATGTGTATAT: 1.51.
In the case of GAGAGCAGGTGATAAGGAACTGTTATCAAG it was -0.809.
With CCCAGATGCCCAGCAGAGGGAGCCGCTGTG, the binding signal (log2 normalized intensity) was -0.984.
In the case of ATATTCTTTACATTTATTAGAACCTTATGT it was 2.31; in that of TGGGAGCAAAGGTCAAGAGTTTTAAAGTAT, 5.05.
In the case of CCCCAATTGCCAAGGGGGTGGTGAAATGGG it was -1.17.
GACCCCTGTGGTACAGGCAGTGACTGGACC: the binding signal (log2 normalized intensity) was 2.51.
Turning to TTGGATTTTTCCATATCTGTGTGCCTGTGG, the binding signal (log2 normalized intensity) was determined as 1.6.
On to CCTGTTACCCACCTGATATTGCTGGCTCTC, for which the binding signal (log2 normalized intensity) is -0.819.
In the case of AGTGGTCATTACCTCCCTGGGCATGTCTGC it was 1.16; in that of CCTCCTGCCCTATGTCCTCCAGCTCTTGGG, 1.53.
The same measure for CCAGTCCGAAGGTCCACCCGTCCGCTTGAT: 1.57; for GGGAGGCAAATCTCTTGGTCATGGAGGGAA: -0.35.
The same measure for TTGAACTCACTGACTTCCATCAATGAAGCA: -1.25; for TAATGCTGAACTTTAGCTCACTGTTGAACA: 0.565.
For the sequence GAGCAGAGAAAATTCTAGATAACTCCAAGA, the binding signal (log2 normalized intensity) was -1.17.
The same measure for GAAAAGCAAGATTGGGAGCTGGGAGGAGCC: -1.13; for GCATTGCTTCTGAAGGCTTAAGGGGAGGAT: -0.888.
The same measure for GGGGACGGAGAGCAGGGCGTGGACTTCGCT: 0.294; for CTTGAGTCCAGGAGTGCAAAGCTGCTATGA: -1.08.
In the case of AGTCCTCTTGTGGTAATCTCTTTTGTGTTA, the binding signal (log2 normalized intensity) came out at 2.4.
In the case of CAGATGAAAGTAGTTGGGGATTGTGTAACA it was 0.893; in that of AGTCTGCTCAAGTCTTTTAGAATGTGGATG, 1.99.
In the case of CTGTATTTAACTTTTGGGATCAGCAATGCT it was 0.117; in that of CTTTATCAACTAAGACAGACCCAAAGGTTA, 1.31.
In the case of CAAACAATGAGGACGTGTGTGTTCTGGACT it was 2.46; in that of CCACTGGAGACTTCAAACGGGAAGCGAGGC, -1.09; in that of GCTGGGCCACACTGGTTCCTGCACCCGGGC, -0.876.
As to TATCCTGTGTTCCACAGTCAAGGCCAAAGG, the binding signal (log2 normalized intensity) amounted to 2.54.
The same measure for CAGGCCTCAGAGATAATAGGTTGTAAAGTG: 1.3; for GCCTCTCTGTGCTGGAACTTGCTTCCTTAT: 0.913; for CTTTGCCAACCTGGCCTGTTTGATCTGGTT: 0.836.
In the case of TCATTCTTTAAGTGTGGGGTGACTGACTTA, the binding signal (log2 normalized intensity) worked out at 1.66.
In the case of TGGGCAGCTTGTGTGCGTTTCCCAGATATC it was 1.1.
Regarding AGCAGAGCTGCTGGCAGGAATTTTAAAAGT, the binding signal (log2 normalized intensity) is -1.07.
For the sequence GAACCAGGAATCCTAGGGAAGAAACATTCT, the binding signal (log2 normalized intensity) is -0.8.
The same measure for GGGGGCCTCTTTTAAGAAGCCAGTGTCTAT: 0.263; for AGGAGATAATAATACTTATCTTGCAGGGTC: 1.57; for ATGTGCCCTTTGGACAGAAATATCAGCAAG: 2.71.
In the case of CCCTGTCTGATAAGGGTGTTTGTCCTTTGT, the binding signal (log2 normalized intensity) amounted to 3.02.
In the case of CGCCCAGGCTGGAATGCAGTGGCGCAATCT, the binding signal (log2 normalized intensity) is -1.22.
The same measure for CTCCTGGGACAAGGACTTTGGCTAGTGGCT: -0.344; for AAGCCCCTTGGGACAGCTGGCCTCATGCCT: -1.02.
In the case of GACAGGATGTTCTACACTGCTTACCCTGCA it was -1.2; in that of GTTTTTTACTGCTCCTGCTGGCTAGCCACA, -1.17.
In the case of GTGCTGGTACATAGCAGGGGTTAGGTAAAC, the binding signal (log2 normalized intensity) was 0.229.
The same measure for CACATTGTTAGCAGAAACCATCTGGCTTGG: -0.826; for TTCTGGTCAAAGGTCAATGAAGCTCTTGCT: 5.65; for CCACCAAATCTTACCTAAGGAAGTTAACCC: 1.84.
The same measure for CCATCCCGTGGACTCTGCCTGCCCTCTCCA: 2.28.
The same measure for CATATGCATTCCTGCCTCAGGCCGACCCCT: 3.93.
With CCAGAGCCTCCAAAGTCCGCTTGCCTGAGG, the binding signal (log2 normalized intensity) was -1.01.
In the case of ATAACTGGTTCAACCTGTTTCCACTCCAGC, the binding signal (log2 normalized intensity) is -1.03.
In the case of TGAAGAGAGTTAGGGCCTTGCTATGGAGTG it was -0.447; in that of TGCATGGATTTCTCAGTTGAGGAATGGGTA, 1.24.
As for GTCTGATCTTCCTGAGGAGAGCAAAGATCA, the binding signal (log2 normalized intensity) is 2.54.
In the case of CCCACAGAGGGGGTTTGTTTTTTGCCCTTT it was 4.6.
In the case of TGGGGACCTTTGGGCTCTGACCCGAAGGGT it was 1.74.
